# The list shows a part of the results.
# B1: DrGRIFIN (Danio rerio), Q6DGJ1 (protein)
# chain: MTLRFEASCPDGLCPGWSVILKGETPPEASKFEINFLCDRDDRVAFHFNPRFTESDIICNSYMANRWGQEERCNHFPLGVEEPFQIEIYSDNDHFHVYIDKAKVMQYKHRVEDLKTITKLQVVNDVKISSLEITKKLFY
# Assays:
# Experiment in all cases: glycan array binding signal (z-score within array); higher = stronger binding
# Settings in all cases: glycan notation: IUPAC condensed, linker removed
# [1] = molecular target: Neu5Ac(a2-3)Gal(b1-4)GlcNAc(b1-6)GalNAc
# How it was run: (§1)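 Negative Z-scores can be read as non-binding. The Z-score is calculated within each array and then averaged across arrays of one protein sequence at different concentrations or buffers and across linkers. Arrays, 3228 in all, were curated from the Consortium for Functional Glycomics database and kept only where the protein sequence was available.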
# [2] = molecular target: Neu5Ac(a2-3)Gal(b1-4)GlcNAc(b1-6)[Gal(b1-3)]GalNAc
# How it was run: as §1
# [3] = molecular target: Neu5Ac(a2-3)Gal(b1-4)GlcNAc(b1-6)[Neu5Ac(a2-3)Gal(b1-3)]GalNAc
# How it was run: as §1
# [4] = molecular target: Neu5Ac(a2-3)Gal(b1-4)GlcNAc6S
# How it was run: as §1
# [5] = molecular target: Neu5Ac(a2-3)Gal(b1-4)[Fuc(a1-3)]GlcNAc
# How it was run: as §1
# [6] = molecular target: Neu5Ac(a2-3)Gal(b1-4)[Fuc(a1-3)]GlcNAc(b1-2)Man
# How it was run: as §1
# [7] = molecular target: Neu5Ac(a2-3)Gal(b1-4)[Fuc(a1-3)]GlcNAc(b1-3)Gal
# How it was run: as §1
# [8] = molecular target: Neu5Ac(a2-3)Gal(b1-4)[Fuc(a1-3)]GlcNAc(b1-3)Gal(b1-4)GlcNAc
# How it was run: as §1
# [9] = molecular target: Neu5Ac(a2-3)Gal(b1-4)[Fuc(a1-3)]GlcNAc(b1-3)Gal(b1-4)[Fuc(a1-3)]GlcNAc(b1-3)Gal(b1-4)[Fuc(a1-3)]GlcNAc
# How it was run: as §1
# [10] = molecular target: Neu5Ac(a2-3)Gal(b1-4)[Fuc(a1-3)]GlcNAc(b1-3)GalNAc
# How it was run: as §1
# [11] = molecular target: Neu5Ac(a2-3)Gal(b1-4)[Fuc(a1-3)]GlcNAc(b1-6)[Gal(b1-3)]GalNAc
# How it was run: as §1
# [12] = molecular target: Neu5Ac(a2-3)Gal(b1-4)[Fuc(a1-3)]GlcNAc(b1-6)[Neu5Ac(a2-3)Gal(b1-3)]GalNAc
# How it was run: as §1
# [13] = molecular target: Neu5Ac(a2-3)Gal(b1-4)[Fuc(a1-3)]GlcNAc6S
# How it was run: as §1
# [14] = molecular target: Neu5Ac(a2-3)Gal6S(b1-4)GlcNAc
# How it was run: as §1
# [15] = molecular target: Neu5Ac(a2-3)Gal6S(b1-4)[Fuc(a1-3)]GlcNAc
# How it was run: as §1
# [16] = molecular target: Neu5Ac(a2-3)GalNAc
# How it was run: as §1
# [17] = molecular target: Neu5Ac(a2-3)GalNAc(b1-4)GlcNAc
# How it was run: as §1
# [18] = molecular target: Neu5Ac(a2-3)[GalNAc(b1-4)]Gal(b1-4)Glc
# How it was run: as §1
# [19] = molecular target: Neu5Ac(a2-3)[GalNAc(b1-4)]Gal(b1-4)GlcNAc
# How it was run: as §1
# [20] = molecular target: Neu5Ac(a2-3)[GalNAc(b1-4)]Gal(b1-4)GlcNAc(b1-3)GalNAc
# How it was run: as §1
# [21] = molecular target: Neu5Ac(a2-3)[Neu5Ac(a2-6)]GalNAc
# How it was run: as §1
# [22] = molecular target: Neu5Ac(a2-6)Gal
# How it was run: as §1
# [23] = molecular target: Neu5Ac(a2-6)Gal(b1-3)GlcNAc(b1-3)[Gal(b1-4)GlcNAc(b1-6)]Gal(b1-4)Glc
# How it was run: as §1
# [24] = molecular target: Neu5Ac(a2-6)Gal(b1-4)Glc
# How it was run: as §1
# [25] = molecular target: Neu5Ac(a2-6)Gal(b1-4)GlcNAc
# How it was run: as §1
# [26] = molecular target: Neu5Ac(a2-6)Gal(b1-4)GlcNAc(b1-2)Man
# How it was run: as §1
# [27] = molecular target: Neu5Ac(a2-6)Gal(b1-4)GlcNAc(b1-2)Man(a1-3)Man(b1-4)GlcNAc(b1-4)GlcNAc
# How it was run: as §1
# [28] = molecular target: Neu5Ac(a2-6)Gal(b1-4)GlcNAc(b1-2)Man(a1-3)[Gal(b1-4)GlcNAc(b1-2)Man(a1-6)]Man(b1-4)GlcNAc(b1-4)GlcNAc
# How it was run: as §1
# [29] = molecular target: Neu5Ac(a2-6)Gal(b1-4)GlcNAc(b1-2)Man(a1-3)[GlcNAc(b1-4)][Neu5Ac(a2-6)Gal(b1-4)GlcNAc(b1-2)Man(a1-6)]Man(b1-4)GlcNAc(b1-4)GlcNAc
# How it was run: as §1
# [30] = molecular target: Neu5Ac(a2-6)Gal(b1-4)GlcNAc(b1-2)Man(a1-3)[Man(a1-6)]Man(b1-4)GlcNAc(b1-4)GlcNAc
# How it was run: as §1
binder,measurement,setting,value
B1,glycan array binding signal (z-score),[1],-0.092
same,glycan array binding signal (z-score),[2],-0.11
same,glycan array binding signal (z-score),[3],-0.186
same,glycan array binding signal (z-score),[4],-0.145
same,glycan array binding signal (z-score),[5],-0.161
same,glycan array binding signal (z-score),[6],-0.201
same,glycan array binding signal (z-score),[7],-0.12
same,glycan array binding signal (z-score),[8],-0.152
same,glycan array binding signal (z-score),[9],-0.165
same,glycan array binding signal (z-score),[10],-0.163
same,glycan array binding signal (z-score),[11],-0.185
same,glycan array binding signal (z-score),[12],-0.174
same,glycan array binding signal (z-score),[13],-0.148
same,glycan array binding signal (z-score),[14],-0.179
same,glycan array binding signal (z-score),[15],-0.229
same,glycan array binding signal (z-score),[16],-0.088
same,glycan array binding signal (z-score),[17],-0.2
same,glycan array binding signal (z-score),[18],-0.164
same,glycan array binding signal (z-score),[19],-0.198
same,glycan array binding signal (z-score),[20],-0.171
same,glycan array binding signal (z-score),[21],-0.139
same,glycan array binding signal (z-score),[22],-0.176
same,glycan array binding signal (z-score),[23],-0.163
same,glycan array binding signal (z-score),[24],-0.017
same,glycan array binding signal (z-score),[25],-0.14
same,glycan array binding signal (z-score),[26],-0.156
same,glycan array binding signal (z-score),[27],-0.156
same,glycan array binding signal (z-score),[28],-0.204
same,glycan array binding signal (z-score),[29],-0.107
same,glycan array binding signal (z-score),[30],-0.19
